Test results as given in the RNAGym collection of RNA variant scans (doi:10.1073/pnas.2313332121).
Variants at the floor of the assay are shown more often than the library holds them.

B1: TPR 5TU (parent)
chain: GGAUCUUCUCGAUCUAACAAAAAAGACAAAUCUGCCACAAAGCUUGAGAGCAUCUUCGGAUGCAGAGGCGGCAGCCUUCGGUGGCGCGAUAGCGCCAACGUUCUCAACUAUGACACGCAAAACGCGUGCUCCGUUGAAUGGAGUUUAUCAUG

Variants of: B1
Experiment: polymerase ribozyme fitness, log enrichment relative to wild type (log ratio); higher = more active; in vitro selection for triplet polymerase activity
Method in brief: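 Genotype fitness is the logarithm of its enrichment divided by wild-type enrichment, using inverse-variance-weighted averages of replicates. That logarithm is base 2. Enrichment was measured by Illumina sequencing of input and output libraries from one triplicate in vitro selection round, with frozen incubation at −7 °C, on PCR-built, transcribed mutant libraries of each subunit of a heterodimeric triplet polymerase ribozyme, retaining genotypes with ≥10 input reads and ≥1 read per output.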

Polymerase ribozyme fitness (log ratio), -3.78:
A52C U55A C85G C116A

Polymerase ribozyme fitness (log ratio), -1.06:
A52G C103U

Polymerase ribozyme fitness (log ratio), -4.07:
A52C C85G C87U G133A G143C
A52C G86C

Polymerase ribozyme fitness (log ratio), 0.0676:
C51U C96U C105U

Polymerase ribozyme fitness (log ratio), -0.484:
C51U G94C

Polymerase ribozyme fitness (log ratio), -0.467:
A52G U82A

Polymerase ribozyme fitness (log ratio), -0.384:
A52C G94A

Polymerase ribozyme fitness (log ratio), -2.02:
A52G A98U

Polymerase ribozyme fitness (log ratio), -2.72:
A52C C72U C96A C123U

Polymerase ribozyme fitness (log ratio), -3.59:
C51U U53A C93A G124U

Polymerase ribozyme fitness (log ratio), ≤ -4.2:
C51U C69A C72U C96A C129G C149G
C51U C69A G84U A91G G133A U144A A147U
C51U C72U G84U A106G A121U C123A A138C
C51U C75G G81A A91U A121G G124C U148C
C51U C75G G88A U130A
C51U C76U C96U A137U U144C U151A
C51U C85G A107C
C51U C85G C96G A119C
C51U C85U G140C
C51U C95A G126U A138U A142C
C51U C103G U148G
C51U G58A C79G G84U
C51U G59U C87G A97U
C51U G68A G92A U109C
C51U G71U G88C A89G A147C
C51U G80A G86A U127G C131U A137G
C51U G86U C108U
C51U G88C A137C
C51U G94U A98C A120G U139A G140U
C51U U53A U61A A97C G140A G143A
C51U U55A C93U C95U
C51U U55A U56A G58C U82A A150C
C51U U56A G71C G84A G140A A142U
C51U U56G G88C U102G
C51U U61G C96U G133U
C51U U82A G88U
C51U U90C A91U A110G U148G
C51U U90G C93A A121C U127C
C51U U90G C95G G126C A142G U148A
C51U U102G
C51U U151G
A52C A60G A91G C93G A120G A137U
A52C A64G A89G C108U
A52C C54A G81U G86U G143U A150C
A52C C54G C93G G94U C96G C125G U148G
A52C C54U G67U U82G G86C C87U
A52C C57G C76G G84U C85A C118A C149U
A52C C57G G58A G84A A91U G126A A150G
A52C C57U G67A G80U A121C
A52C C75A C95A C96U C125A
A52C C76G C93A A138G U139A U148G
A52C C85A U90C G133C U145C
A52C C85G A97G U151C
A52C C85U A150C G152U
A52C C87A U104G
A52C C96U C103G
A52C C105U A115G G140C A142C A150C
A52C G58A A91U C108G C131U
A52C G58U A66G C87G
A52C G59A G68A C79U G92U U104G
A52C G59C G88C A98G
A52C G67A C85U G88C C116G A137U
A52C G67C G83U C108U G124U
A52C G68C A89C
A52C G83C A98G A107G
A52C G84U C96U U144A
A52C G88A U127C
A52C G92U C103G A106C
A52C U53A U55G G83U C105U U151G
A52C U53A U55G U56C A60G G88A G92A U104G C108A A115U
A52C U53G G83C G92U C105U A106C
A52C U55A G71C U78A C87G A110C
A52C U55C C87U A91C A97G
A52C U55C G81C G83A C105G
A52C U56A C72U A73G U77G U78G C87A A89U
A52C U56A C75U A89U U90G C95G U151G
A52C U56A U78A U109G A150G
A52C U101G G140C
A52G A60G G81U A89C C95G U102C G136U A137U
A52G A64C C69U A138G
A52G A66C
A52G A66G C96G U104G U135G
A52G A73C C95A C108A A113C A121G
A52G A73G G88C C108G G124A G133U G140A A142G
A52G C54A U148G
A52G C54U G58U C72U G88A G152A
A52G C69A G80U C87G C108G C114U
A52G C69G C93U
A52G C72U C85U A110U
A52G C75U A110G C129A
A52G C79G G83U U102C
A52G C87A A97U A107U G140U
A52G C87U C93U C131A G136A G143C U145G U146G
A52G C93U C96U G136C A138G U146A
A52G C96U U101A A142U A150G
A52G C103G A107G G117U
A52G C105A C123A G133U U144G
A52G G58A G74A A106C
A52G G58A G88A
A52G G58U A66G G70U G92A G100A C116A U148A
A52G G58U C76U C93G U127A C131G
A52G G59U G68C C85G A120G G128A C132U U145G
A52G G62A C63G G68A C93A U146G
A52G G62A C76A U111G U135G G141C
A52G G80U G92C C132U
A52G G84U C96G G140C U148A
A52G G88A
A52G G88U C95A G140U
A52G G88U U127G
A52G G92C A113C A115G U146C
A52G G92C C96A U104C C118U A120G U134G
A52G G92C C96A U148A U151G
A52G G94U A115C C131G G133C
A52G U53A G84A G100C A115C A147G
A52G U55A C76G G81C A121U
A52G U55G A115C C129G G140U
A52G U55G G71A C85A C125A U144C C149G
A52G U56A A73G C93A G140A U145A
A52G U56A G62C C85U U148A
A52G U90A A142G
A52U A60G C87A G128U C131G
A52U A66G C87G A97G
A52U A91U U139G U144A
A52U A120U U130G
A52U C76A C114A G141A U146G

Polymerase ribozyme fitness (log ratio), -1.45:
C51U C96G U144A

Polymerase ribozyme fitness (log ratio), -3.1:
C51U G92C U135C

Polymerase ribozyme fitness (log ratio), -2.21:
A52U C54G

Polymerase ribozyme fitness (log ratio), -1.2:
A52C G86A

Polymerase ribozyme fitness (log ratio), -3.65:
A52C C93G

Polymerase ribozyme fitness (log ratio), -4.06:
C51U U61A G86C

Polymerase ribozyme fitness (log ratio), -3.84:
C51U U53A C96G G124U A147U

Polymerase ribozyme fitness (log ratio), -4.1:
A52G G71U C96U

Polymerase ribozyme fitness (log ratio), -1.12:
A52C G84A C116G A120U

Polymerase ribozyme fitness (log ratio), -4.18:
A52C U148A

Polymerase ribozyme fitness (log ratio), -0.16:
A52G U101G

Polymerase ribozyme fitness (log ratio), -3.22:
A52C C85A

Polymerase ribozyme fitness (log ratio), -1.32:
A52C G84A

Polymerase ribozyme fitness (log ratio), -0.879:
A52G C76U C85G C123A U144G

Polymerase ribozyme fitness (log ratio), -2.57:
A52C C85U U102C

Polymerase ribozyme fitness (log ratio), -4.02:
C51U U56A A73U G86A

Polymerase ribozyme fitness (log ratio), -0.753:
A52G C57A G92U

Polymerase ribozyme fitness (log ratio), -1.46:
A52G U109G A122U

Polymerase ribozyme fitness (log ratio), -0.771:
A52G A106G

Polymerase ribozyme fitness (log ratio), -0.423:
C51U G141C

Polymerase ribozyme fitness (log ratio), -3.93:
A52G A60U C85A G94U C96G

Polymerase ribozyme fitness (log ratio), -1.11:
C51U G94A

Polymerase ribozyme fitness (log ratio), -3.36:
A52C A113C

Polymerase ribozyme fitness (log ratio), -3.88:
A52C A113U

Polymerase ribozyme fitness (log ratio), -4.09:
A52C G84A G88C

Polymerase ribozyme fitness (log ratio), -0.337:
A52G A121C

Polymerase ribozyme fitness (log ratio), -3.97:
C51U U56A A73U U78G A91U G141C G152A

Polymerase ribozyme fitness (log ratio), -3.76:
A52C C85U A147G

Polymerase ribozyme fitness (log ratio), -2.32:
C51U U134A

Polymerase ribozyme fitness (log ratio), -1.03:
A52G G84A

Polymerase ribozyme fitness (log ratio), -3.28:
A52G A137C

Polymerase ribozyme fitness (log ratio), -4.01:
A52C U55A U56A G86C

Polymerase ribozyme fitness (log ratio), -3.45:
A52C C85U G94C G141C

Polymerase ribozyme fitness (log ratio), -0.803:
A52G U55A G92U

Polymerase ribozyme fitness (log ratio), -1.29:
A52G G84A C118U C123G

Polymerase ribozyme fitness (log ratio), -1.26:
A52G U104G

Polymerase ribozyme fitness (log ratio), -0.262:
C51U G62A U139G

Polymerase ribozyme fitness (log ratio), -0.266:
A52G A73G

Polymerase ribozyme fitness (log ratio), -1.13:
C51U C87U

Polymerase ribozyme fitness (log ratio), -0.97:
C51U C57A G83C A106G

Polymerase ribozyme fitness (log ratio), -3.48:
A52G C114A
